# Reference: the supplement of paper PMC3334620
# The full ranking holds about 33,000 sequences; the median of “E-score (-0.5 to 0.5)” is about -0.043, and the highest 2% start at about 0.37. The list shows a part of the results.
# Biological target: T1, Upc2 (UniProt Q12151)
# T1 sequence: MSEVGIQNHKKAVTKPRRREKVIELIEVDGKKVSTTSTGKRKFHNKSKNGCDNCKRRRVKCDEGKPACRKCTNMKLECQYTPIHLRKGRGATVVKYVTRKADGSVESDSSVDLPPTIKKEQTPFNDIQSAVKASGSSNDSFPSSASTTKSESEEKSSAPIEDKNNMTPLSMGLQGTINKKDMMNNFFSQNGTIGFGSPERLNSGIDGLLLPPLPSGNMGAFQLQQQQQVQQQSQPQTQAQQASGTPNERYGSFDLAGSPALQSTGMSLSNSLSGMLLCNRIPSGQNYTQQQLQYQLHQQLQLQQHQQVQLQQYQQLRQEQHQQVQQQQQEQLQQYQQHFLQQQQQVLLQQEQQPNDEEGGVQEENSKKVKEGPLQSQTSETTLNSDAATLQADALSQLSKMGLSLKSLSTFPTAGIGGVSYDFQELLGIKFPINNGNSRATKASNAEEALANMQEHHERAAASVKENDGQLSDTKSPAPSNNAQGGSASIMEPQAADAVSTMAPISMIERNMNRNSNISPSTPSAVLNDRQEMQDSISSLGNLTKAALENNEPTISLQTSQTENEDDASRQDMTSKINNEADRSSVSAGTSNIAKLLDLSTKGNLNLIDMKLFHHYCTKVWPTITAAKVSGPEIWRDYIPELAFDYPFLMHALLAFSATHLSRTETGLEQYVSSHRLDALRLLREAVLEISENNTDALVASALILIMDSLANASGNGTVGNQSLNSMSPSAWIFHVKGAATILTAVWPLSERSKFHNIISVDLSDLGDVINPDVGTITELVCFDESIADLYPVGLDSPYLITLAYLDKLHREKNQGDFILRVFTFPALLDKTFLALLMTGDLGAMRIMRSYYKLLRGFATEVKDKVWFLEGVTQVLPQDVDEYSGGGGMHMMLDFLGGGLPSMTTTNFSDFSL
# Assay: PBM E-score (8-mer binding enrichment) (E-score (-0.5 to 0.5)); higher = stronger / more preferred TF binding; most listed sequences are background and not binding sites
# Conditions: protein concentration: 200 nM; construct: GST-full length
# In short: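 Full-length yeast transcription factors or their DNA-binding domains, GST-tagged and expressed with PURExpress, were applied at about 100-200 nM to universal all-10-mer Agilent arrays. These arrays had been made double-stranded by primer extension on fresh or once-stripped slides. Detection used fluorescent anti-GST, normalisation used masliner, and E-scores for ungapped eight-base words pooled with reverse complements came from the Universal PBM Analysis Suite.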
row,Sequence,PBM E-score
1,ATCACGAC,0.0267
2,CTGATCAG,-0.204
3,AACAATAG,-0.154
4,CGTATCAA,0.37
5,GCACTTGA,-0.119
6,AGATTCTC,-0.0164
7,AGTGTACC,-0.0597
8,CCGATGAA,0.0307
9,TAGCCCGA,-0.167
10,CTGGTTCC,-0.212
11,GCCGGCGC,-0.134
12,CTTTTTTC,-0.0358
13,CAGGAGCC,-0.0622
14,AGTGCGCA,-0.133
15,ACTACGAT,0.16
16,ATGCGCCG,-0.096
17,GTGGCACA,-0.248
18,AGGTTGGC,-0.125
19,ATTAAAAC,0.175
20,GCGCCAAC,-0.0723
21,CGCGGGAG,-0.105
22,TCTTCTCA,-0.144
23,ACCAGAGT,-0.0167
24,AGAGTCCT,-0.311
25,GATCCTGC,0.0718

row,Sequence,PBM E-score
1,CCCGAAGC,-0.0468
2,TACTGCCA,-0.0597
3,CACTTATG,-0.0747
4,GACCCAGA,0.00127
5,CGTGGTGC,-0.21
6,ATTGGTGA,-0.199
7,GGATGAGA,-0.204
8,GAGTTCAA,0.0381
9,CCACATGC,-0.155
10,ATTACACA,-0.0135
11,AGGCGATC,0.00039
12,AAGATCCC,-0.126
13,ACCGCGAT,0.0631
14,AGGAATCG,0.0922
15,CCGAGCGG,0.166
16,AGCCTCAG,-0.109
17,GTCATTTA,-0.204
18,CATGGTGC,-0.107
19,ACTTAGGG,-0.125
20,CGGTTTGC,0.189
21,AAAGATTG,-0.243
22,CTGAATCC,-0.226
23,GGGCGGCA,-0.183
24,ATCACACG,0.0148
25,ATTCTGAA,0.0717

row,Sequence,PBM E-score
1,CGGTTTGA,-0.091
2,CACCGCGC,0.0554
3,AAGTTTAG,-0.00488
4,AGGGTTTG,-0.00132
5,AAGACTGC,-0.249
6,TAAATAGA,0.091
7,AGCGACTG,0.143
8,ACACAGCA,0.0464
9,CAGGAGCA,-0.114
10,GCGGCCGA,0.0684
11,CATCGTCC,-0.0591
12,AAATTCTC,0.0927
13,GCATGGGA,-0.165
14,CGACCTGA,0.212
15,GATCCCAA,-0.264
16,CCTATTGC,-0.114
17,AAATACCT,-0.211
18,AACGCCGT,0.227
19,AATCAGCG,0.0973
20,ACACTGGA,-0.138
21,GCTGTATA,0.11
22,CATTTGTC,0.0413
23,GTAGAGGA,-0.043
24,GCCAGAGA,-0.00631
25,CATGAGGG,-0.138

row,Sequence,PBM E-score
1,ACCCTCGG,-0.0688
2,CATACTGA,-0.0722
3,GACATACA,-0.0273
4,ACTAACTG,-0.192
5,CCATAACG,0.0465
6,GGAAAATA,0.0478
7,GAGCCTGA,-0.0407
8,AACGTCTA,-0.0334
9,GAAGGTTA,0.00519
10,GCCACTGA,-0.192
11,CCCTTGAG,-0.223
12,ATAACTTC,0.0484
13,AAGGAGGA,0.0664
14,GAGCTTGA,-0.0854
15,CGGAACCC,-0.0167
16,ATTGAATC,-0.166
17,AGAGAAGG,-0.186
18,ATTTCACG,0.168
19,AGACTAAG,0.0429
20,ACTTATCC,0.041
21,AGTTGAGG,-0.0957
22,GCCTGGAC,-0.164
23,AAGGTTTC,-0.139
24,ACCTGCTA,-0.158
25,CGGCAGCA,-0.139

row,Sequence,PBM E-score
1,TCGTGGCA,-0.093
2,CGACTTCC,0.0204
3,GCGCTTAA,0.173
4,GCGTCTAA,-0.0951
5,AAATACTC,-0.0601
6,AGGTCGCG,-0.0323
7,CGAGAGGC,0.0241
8,ACCTACCA,-0.173
9,CGCTAGAA,-0.15
10,ATGGCGGG,-0.106
11,ATGGGCGA,-0.0811
12,ACTATGAA,-0.0506
13,CGCAGCTC,0.0312
14,GTCCGCAA,-0.0605
15,ATGGCAGG,-0.163
16,GGAGTCAC,-0.218
17,GCCTTTCA,-0.221
18,AGACAAGG,-0.197
19,CAGTACGA,0.411
20,CTAGATTA,-0.0618
21,ACCGAAAC,0.239
22,TCCAACGA,-0.0253
23,CTTAGGGC,-0.146
24,ATTGTGCC,-0.149
25,CAAAGTCG,0.0367

row,Sequence,PBM E-score
1,AGTGGTAG,-0.0878
2,GCGCGAAC,0.135
3,ATGGTAGG,-0.175
4,AGTAGGGC,-0.114
5,CCACCAGG,-0.171
6,ACCCTTTG,-0.249
7,CGTTTTAC,0.272
8,AACGGGAT,0.252
9,CTACGCCC,-0.0731
10,CTATAAAC,0.278
11,TAGTTCGA,-0.115
12,TACAGGCA,0.113
13,GTGTACAC,0.0361
14,AGGGCATA,-0.113
15,CGTGTTAC,0.138
16,GTGAGTAA,-0.0525
17,ATTAAATC,-0.00655
18,ATTGATTA,0.106
19,GTATAATA,0.375
20,ACGTCGCC,-0.0186
21,GTCCTAAA,0.195
22,ACCGGGGG,-0.287
23,ACACGCTA,-0.0131
24,GCGACTTA,0.0997
25,AGTCATGA,-0.172

row,Sequence,PBM E-score
1,CTCCGTAC,0.376
2,CGATAAAG,0.0042
3,CAATGTAG,-0.165
4,GACGTAGA,0.054
5,AGGTCACC,-0.279
6,AGCCAGAG,-0.0862
7,AGATCATG,-0.187
8,ACGCCGGG,-0.0129
9,ACCCAGCT,-0.168
10,CCTGTCTC,-0.204
11,AAGTGCAC,0.0393
12,AATAATAC,0.186
13,CGGTGGTA,0.119
14,GTAGGTCA,-0.172
15,GAGTTGGA,-0.197
16,GACATCCA,-0.0621
17,GCCAATCA,-0.188
18,GAGGCAGC,-0.128
19,CGCTAAGC,0.214
20,AGGACTGA,-0.0967
21,AGTCATTA,-0.0642
22,ACAGAGAC,-0.124
